This is an account of results in the supplement of paper PMC10670038.

Structures can show the parent of a compound that is named as a salt. ± gives the standard deviation of the averaged measurements. The full ranking holds about 2,000 compounds; the median of “relative cell viability vs DMSO, compound alone” is about 1.1, and the lowest 2% start at about 0.29. This is one part of the list.

This test deals with TE10. The test can be described thus: relative cell viability vs DMSO, compound alone (fraction); TE10 is an esophageal squamous carcinoma line; higher = less cytotoxic. As to conditions: 2 µM; 48 h. How it is done: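 TE10 ESCC cells (1,000/well, 384-well plates) were treated with Selleck bioactive library compounds at 2 uM alone for 48 h. Viability was read by CellTiter-Glo and expressed relative to DMSO wells. Two technical replicates (A, B).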
In the case of `CCCCOc1ccc(OCCCN2CCOCC2)cc1` [Pramoxine HCl], the relative cell viability is 1.06 ± 0.058. As for `C[C@@H](O)[C@H]1C(=O)N2C(C(=O)OCOC(=O)C(C)(C)C)=C(SC3CN(C4=NCCS4)C3)[C@H](C)[C@H]12` [Tebipenem Pivoxil], the figure is 1.14 ± 0.037. As for `CN[C@@H](C)C(=O)N[C@H](C(=O)N1CCC[C@H]1C(=O)N[C@H](C(=O)NCCCCCCNC(=O)[C@@H](NC(=O)[C@@H]1CCCN1C(=O)[C@@H](NC(=O)[C@H](C)NC)C1CCCCC1)C(c1ccccc1)c1ccccc1)C(c1ccccc1)c1ccccc1)C1CCCCC1`, the figure is 0.871 ± 0.0093. As for `COc1ccc(-n2nc(C(N)=O)c3c2C(=O)N(c2ccc(N4CCCCC4=O)cc2)CC3)cc1` [Apixaban], the figure is 1.1 ± 0.027; as for `COc1ccc(C(C)=O)c(O)c1` [Paeonol], 1.11 ± 0.031; as for `COc1c(O)cc2c(c1O)[C@@H]1O[C@H](CO)[C@@H](O)[C@H](O)[C@H]1OC2=O` [Bergenin], 1.07 ± 0.043. The molecule `CC(C)[C@H]1CC[C@H](C(=O)N[C@H](Cc2ccccc2)C(=O)O)CC1` [Nateglinide] returned a relative cell viability of 0.922 ± 0.1. Turning to `Nc1cccc(-c2cc3c(Oc4cccc(O)c4)ncnc3[nH]2)c1`, the relative cell viability stood at 1.01 ± 0.043. As for `COc1ccccc1OCCNCC(O)COc1cccc2[nH]c3ccccc3c12` (stereo not drawn) [Carvedilol], the figure is 0.935 ± 0.019; as for `CC(C)c1nc(CN(C)C(=O)N[C@H](C(=O)N[C@@H](Cc2ccccc2)C[C@H](O)[C@H](Cc2ccccc2)NC(=O)OCc2cncs2)C(C)C)cs1` [Ritonavir], 1.13 ± 0.062; as for `O=C(Nc1cccc(Cl)c1)Nc1ncc(CCNc2ncnc3ccsc23)s1` [SNS-314 Mesylate], 1.02 ± 0.085.

Take `CCc1c(C(=O)NCCc2ccc(N3CCCCC3)cc2)[nH]c2ccc(Cl)cc12`: the relative cell viability was determined as 0.95 ± 0.048. Molecule `CCCS(=O)(=O)Nc1ccc(F)c(C(=O)c2c[nH]c3ncc(Cl)cc23)c1F` came in with a relative cell viability of 1.24 ± 0.017. In the case of `CCN1CCCC1CNC(=O)c1cc(S(=O)(=O)CC)c(N)cc1OC` (stereo not drawn) [Amisulpride], the relative cell viability was found to be 1.298 ± 0.0039. As for `Nc1nc(N)nc(-c2cc(Cl)ccc2Cl)n1` [Irsogladine], the figure is 1.04 ± 0.029.

`CNC(=O)CN1CCC(Oc2cc3c(Nc4cccc(Cl)c4F)ncnc3cc2OC)CC1` [AZD8931 (Sapitinib)] displayed a relative cell viability of 1.21 ± 0.015.

As to `CCC(C)(C)c1ccc(CC(C)CN2C[C@@H](C)O[C@@H](C)C2)cc1` (stereo partly drawn) [Amorolfine HCl], the relative cell viability was 0.85 ± 0.029. As for `CC(C)(C)C#Cc1cc(N(C(=O)[C@H]2CC[C@H](C)CC2)[C@H]2CC[C@H](O)CC2)c(C(=O)O)s1` [VX-222 (VCH-222, Lomibuvir)], the figure is 1.1786 ± 0.00026. As for `CC(C)N(CCC(=O)c1ccc2ccccc2c1)Cc1ccccc1`, the relative cell viability is 0.964 ± 0.065.

The molecule `CCOC(=O)c1ccc(C#Cc2ccc3c(c2)C(C)(C)CCS3)nc1` [Tazarotene] came in with a relative cell viability of 1.11 ± 0.026.

As for `CC1=NN(c2ccc(C(=O)O)cc2)C(=O)C1=Cc1ccc(-c2cc(C)c(C)cc2[N+](=O)[O-])o1`, the relative cell viability worked out at 1.04 ± 0.022. `Cn1c(=O)c(F)c(Nc2ccc(I)cc2F)c2c(=O)n(C[C@@H](O)CO)cnc21` gave a relative cell viability of 0.759 ± 0.013. As for `COc1ccc(/C=C/C(=O)C2(C(=O)/C=C/c3ccc(OC)c(OC)c3)CCCCC2)cc1OC`, the figure is 0.726 ± 0.088; as for `COc1ccc(-c2cc3c(C)nc(N)nc3n([C@H]3CC[C@H](OCCO)CC3)c2=O)cn1`, 0.478 ± 0.012; as for `CCOc1nc2cccc(C(=O)OC(C)OC(=O)OC3CCCCC3)c2n1Cc1ccc(-c2ccccc2-c2nn[nH]n2)cc1` (stereo not drawn) [Candesartan Cilexetil], 0.982 ± 0.11. As for `Nc1ccc(S(N)(=O)=O)cc1` [Sulfanilamide], the figure is 1.1 ± 0.041; as for `CCN1CCC[C@H]1CNC(=O)c1cc(S(N)(=O)=O)ccc1OC` [Levosulpiride], 1.01 ± 0.068. As for `CCCNS(=O)(=O)Nc1ncnc(OCCOc2ncc(Br)cn2)c1-c1ccc(Br)cc1` [Macitentan], the figure is 1.14 ± 0.013; as for `N#CC(=C(/N)Sc1ccccc1N)/C(C#N)=C(\N)Sc1ccccc1N`, 1.15 ± 0.088. Molecule `NC(=O)[C@@H](CCC(F)(F)F)N(Cc1ccc(-c2ncon2)cc1F)S(=O)(=O)c1ccc(Cl)cc1` gave a relative cell viability of 1.14 ± 0.1. As for `COc1ccc(CNCc2cccc3ccccc23)cc1`, the figure is 1.02 ± 0.017; as for `Cc1[nH]c(/C=C2\C(=O)Nc3ccc(S(=O)(=O)Cc4c(Cl)cccc4Cl)cc32)c(C)c1C(=O)N1CCC[C@@H]1CN1CCCC1`, 1.22 ± 0.029.

`C=CCN1CCCC1CNC(=O)c1cc2nn[nH]c2cc1OC` (stereo not drawn) [Alizapride HCl] showed a relative cell viability of 1.11 ± 0.11.

The molecule `Nc1nc(Nc2ccc(S(N)(=O)=O)cc2)nn1C(=O)c1c(F)cccc1F` came in with a relative cell viability of 1.04 ± 0.038. As for `CC(C)c1onc(-c2c(Cl)cccc2Cl)c1COc1ccc(/C=C/c2cccc(C(=O)O)c2)c(Cl)c1`, the figure is 1.01 ± 0.022; as for `NC(=O)CCCSc1nc(N)nc(-c2c(Cl)cc3c4c(cccc24)COC3)n1`, 0.613 ± 0.024; as for `CC(C)(Oc1ccc(C2CC2(Cl)Cl)cc1)C(=O)O` (stereo not drawn) [Ciprofibrate], 1.1 ± 0.028.

As to `NCc1c[nH]c(=S)n1[C@H]1CCc2c(F)cc(F)cc2C1` [Nepicastat (SYN-117) HCl], the relative cell viability is 1.13 ± 0.039.

`Nc1nccs1` [Aminothiazole] registered a relative cell viability of 1.05 ± 0.022. Regarding `NC(=O)c1cccnc1` [Nicotinamide (Vitamin B3)], the relative cell viability amounted to 0.903 ± 0.037. As for `CCCc1nc(C(C)(C)O)c(C(=O)OCc2oc(=O)oc2C)n1Cc1ccc(-c2ccccc2-c2nnn[nH]2)cc1` [Olmesartan Medoxomil], the relative cell viability was 1.16 ± 0.046. `Cn1c(=O)c2c(ncn2CC(O)CO)n(C)c1=O` (stereo not drawn) [Dyphylline] had a relative cell viability of 1.18 ± 0.066.

Molecule `Cc1c(Cn2c(C)nc3c(C(=O)O)cc(N4CCOCC4)cc32)cccc1C(F)(F)F` displayed a relative cell viability of 0.978 ± 0.063. As for `O=C(NCc1ccc(Oc2ccccc2)cc1)c1nc(-c2cc(Br)c(O)c(Br)c2)no1`, the figure is 1.17 ± 0.012; as for `CCCCCCCCCCCCCCCC[N+](C)(C)C` [Cetrimonium Bromide (CTAB)], 1.05 ± 0.039. `NC(=O)NO` [Hydroxyurea] showed a relative cell viability of 1.11 ± 0.043.

As to `Clc1ccccc1C(c1ccccc1)(c1ccccc1)n1ccnc1` [Clotrimazole], the relative cell viability was 1.14 ± 0.027. `Cc1cc(N2CCOCC2)cc2[nH]c(-c3c(NCC(O)c4cccc(Cl)c4)cc[nH]c3=O)nc12` (stereo not drawn) gave a relative cell viability of 0.881 ± 0.054. As for `Clc1ccc(COC(Cn2ccnc2)c2ccc(Cl)cc2Cl)cc1` (stereo not drawn) [Econazole nitrate], the figure is 0.891 ± 0.04.

The molecule `CO[C@H]1C(=O)[C@]2(C)[C@@H](OC)C[C@H]3OC[C@@]3(OC(C)=O)[C@H]2[C@H](OC(=O)c2ccccc2)[C@]2(O)C[C@H](OC(=O)[C@H](O)[C@@H](NC(=O)OC(C)(C)C)c3ccccc3)C(C)=C1C2(C)C` [Cabazitaxel] gave a relative cell viability of 0.669 ± 0.013. As for `O=S(=O)(O)CCSSCCS(=O)(=O)O` [Dimesna], the figure is 1.22 ± 0.12; as for `O=C(Nc1ccc2c(O)cc(S(=O)(=O)O)cc2c1)Nc1ccc2c(O)cc(S(=O)(=O)O)cc2c1`, 1.03 ± 0.016. `CCc1cc(/C(C)=N/OCc2ccc(C3CCCCC3)c(C(F)(F)F)c2)ccc1CN1CC(C(=O)O)C1` [BAF312 (Siponimod)]: the relative cell viability stood at 1.1 ± 0.07. On to `Cc1cc(CS(=O)(=O)c2ccccc2)cc(OCc2ccc(CN3CCC[C@@H]3CO)cc2)c1`, for which the relative cell viability is 1.08 ± 0.027. As for `O=C(O)c1ccc(N2C(=O)C(=Cc3ccc(-c4ccc([N+](=O)[O-])cc4)o3)C=C2c2ccccc2)cc1`, the figure is 1.0435 ± 0.00023; as for `COc1cc2c(cc1OC)CN(CCc1ccc(NC(=O)c3cccc4c(=O)c5cccc(OC)c5[nH]c34)cc1)CC2`, 1.03 ± 0.056; as for `CCN(CCCc1ccccc1)CCCc1ccccc1` [Alverine Citrate], 1.11 ± 0.059. As for `CN(C)CCN1C(=O)c2cccc3cc(N)cc(c23)C1=O` [Amonafide], the figure is 1.07 ± 0.07; as for `CCOc1ccc(Cc2cc([C@@H]3O[C@H](CO)[C@@H](O)[C@H](O)[C@H]3O)ccc2Cl)cc1` [Dapagliflozin], 0.8703 ± 0.0012; as for `O[C@@H]1CO[C@H]2[C@@H]1OC[C@@H]2O` [Isosorbide], 0.884 ± 0.062. As for `O=c1cc(CN2CCOCC2)occ1OCCCCCSc1ccnc2cc(C(F)(F)F)ccc12`, the figure is 1.09 ± 0.02; as for `Cc1c(O)cccc1C(=O)N[C@@H](CSc1ccccc1)[C@H](O)CN1C[C@H]2CCCC[C@H]2C[C@H]1C(=O)NC(C)(C)C` [Nelfinavir Mesylate], 1.1208 ± 0.00096.

Take `CN(C)CCC(c1ccccc1)c1ccccn1` (stereo not drawn) [Pheniramine Maleate]: the relative cell viability came to 1.12 ± 0.044. As for `Cc1cccc(Nc2nc(-c3ccncc3)cs2)c1`, the figure is 1.16 ± 0.06; as for `Nc1ccn([C@@H]2O[C@H](CO)[C@@H](O)[C@H]2O)c(=O)n1` [Cytidine], 1.13 ± 0.02. As for `CC(C)NCCCn1c(Sc2cc3c(cc2I)OCO3)nc2c(N)ncnc21`, the figure is 0.623 ± 0.018; as for `Cc1ccc(O)c([C@H](CCN(C(C)C)C(C)C)c2ccccc2)c1` [Tolterodine tartrate], 1.09 ± 0.019; as for `Cc1cc(C)cc(NC(=O)Cc2ccc(OC(C)(C)C(=O)O)cc2)c1` [Efaproxiral Sodium], 1.11 ± 0.012. As to `CCCCOc1ccc(CC(=O)NO)cc1` [Bufexamac], the relative cell viability was 1.0117 ± 0.00046. As for `C[C@H]1c2cccc(O)c2C(O)=C2C(=O)[C@]3(O)C(O)=C(C(N)=O)C(=O)[C@@H](N(C)C)[C@@H]3[C@@H](O)[C@@H]21` [Doxycycline HCl], the figure is 1.26 ± 0.022. As for `C[C@H]1c2cccc(O)c2C(O)=C2C(=O)[C@]3(O)C(O)=C(C(N)=O)C(=O)[C@@H](N(C)C)[C@@H]3[C@@H](O)[C@@H]21` [Doxycycline Hyclate], the figure is 1.12 ± 0.046; as for `CCCCC(C=O)NC(=O)C(CC(C)C)NC(=O)C(CC(C)C)NC(C)=O` (stereo not drawn), 0.266 ± 0.011; as for `CCCCCCCCCCCCCCCCO` [1-Hexadecanol], 1.01 ± 0.14.

Molecule `Nc1ncnc2c1c(-c1cnc3[nH]ccc3c1)nn2C1CCCC1` gave a relative cell viability of 0.505 ± 0.045.

`CCOC(=O)c1ccc(NC(=O)O[C@H]2[C@H](OC(=O)Nc3ccc4c(c3)OCO4)[C@@H](OC(=O)Nc3ccc4c(c3)OCO4)[C@@H](OC)O[C@@H]2CO)cc1`: the relative cell viability was 1.16 ± 0.047. As for `CCCCOc1cc(C(=O)NCCN(CC)CC)c2ccccc2n1` [Dibucaine HCl], the figure is 1.17 ± 0.056; as for `CCNC(=O)C#Cc1ccc2c(C(=Nc3ccc(CN(C)C)cc3)c3ccccc3)c(O)[nH]c2c1`, 0.638 ± 0.033; as for `O=C1CCc2cc(OCCCCc3nnnn3C3CCCCC3)ccc2N1` [Cilostazol], 1.162 ± 0.011.
